Results taken from PubChem BioAssay AID686979 (National Center for Advancing Translational Sciences (NCATS), 2013).
Several values for one entry are separate records, joined by “and”; a condition that tells them apart may be missing. Equal values may be shown once. Screen size: about 420,000 compounds; about 50,000 (12%) were called active. Inconclusive means that the source gave no clear call. Such entries were picked first, then a sample of the others. Calls follow the shape of the dose curve; as a rule, active = well fitted inhibition curve with a large enough effect; inconclusive = small, poorly fitted or top-dose-only effect; inactive = flat fitted curve, though single readings scatter. Potencies of inconclusive entries are doubtful fits and often do not repeat.
% is scaled to controls: 0 for no effect and ±100 for the full control effect; potency is read from the fitted curve at half-maximal effect; tags tell the direction and shape of the fitted curve.

Test: qHTS for Inhibitors of human tyrosyl-DNA phosphodiesterase 1 (TDP1): qHTS in cells in presence of CPT; also: nearly all actives have a fitted effect of over 55% in size
Settings: chicken DT40 Tdp1-/-;hTDP1 cells + 20 nM CPT, ATP luminescence, 48 h; activity change, negative = growth inhibition: at 46.2 µM (top of the series)
Procedure, shortened: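 Chicken DT40 Tdp1-/- cells complemented with human TDP1, 400 cells/well, exposed to compounds plus 20 nM camptothecin for at least 48 h at 37 C; viability read as ATP content by CellTiter-Glo luminescence.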
In the case of `COc1ccc(-c2csc3nc(C)n(-n4cccc4)c(=O)c23)cc1`, the Potency was inconclusive: 29.1 µM [inhibitor, single point]. With `CC(OC(=O)c1nn(C(C)C)c(=O)c2ccccc12)C(=O)Nc1ncc(Cl)cc1Cl` (stereo not given) the Potency was inconclusive: 29.1 µM [inhibitor, single point]. With `O=C(Cc1ccc(S(=O)(=O)N2CCCC2)s1)Nc1cccc([N+](=O)[O-])c1` the Potency was inconclusive: 23.1 µM [inhibitor, single point]. For `CN1CCN(C(=O)C2=C[C@H](c3coc4ccccc4c3=O)C[C@H](OCCCCO)O2)CC1`, the Potency was “inactive”. For `CCOc1cc2c(cc1OCC)C(c1ccccc1)N(c1ccccc1)C(=O)C2` (stereo not given), the Potency was active: 16.4 µM. With `Cc1cccc(CN2CCC(n3nccc3NC(=O)CCCc3ccccc3)CC2)n1` the Potency was inconclusive: 10.3 µM [inhibitor, partial curve, poor fit]. With `CC(C)c1ccc(C(C)NC(=S)NC2CCCCC2)cc1` (stereo not given) the Potency was active: 18.4 µM. With `Cc1cccc(NC(=O)CCc2ccc(C)o2)c1` the Potency was inconclusive: 29.1 µM [inhibitor, single point]. For `O=C1C2C3c4ccccc4C(c4ccccc43)C2C(=O)N1Cc1ccco1` (stereo not given), the Potency was inconclusive: 9.2 µM [inhibitor, partial curve]. In the case of `O=c1c(CCc2ccccc2)nc2cnc(N3CCNCC3)nc2n1Cc1ccc(F)cc1`, the Potency was active: 1.03 µM. In the case of `CC(=O)c1ccc(NC(=O)c2nc(-c3ccc(Cl)cc3)n3c2CCCCC3)cc1`, the Potency was inconclusive: 29.1 µM [inhibitor, single point]. With `C/C(=N\NC(=S)NCc1ccccc1)c1cccc(Br)c1` the Potency was active: 14.6 µM. For `CC1CCN(c2ccc(NC(=O)Cc3ccccc3)cc2)CC1`, the Potency was “inactive”. In the case of `COc1cccc(/C=C2\C(=O)C(=O)c3ccccc32)c1`, the Potency was inconclusive: 22.4 µM [inhibitor, single point]. With `COC(=O)C1CCCCN1Cc1nc(N2CCCCC2)c2cc(OC)c(OC)cc2n1` (stereo not given) the activity change, negative = growth inhibition was inactive: 19.9% [at 9.04 µM]. In the case of `COc1cc(C)nc(-c2csc(C)n2)n1`, the Potency was “inactive”. With `Cn1cc(Br)c(C(=O)N/N=C/c2cc3ccccc3nc2Cl)n1` the Potency was inconclusive: 25.9 µM [inhibitor, single point]. In the case of `CC(C)(C)OC(=O)N1CCC(c2c(C(=O)N3CCN(C(=O)c4ccco4)CC3)cnn2-c2cccc(Cl)c2)CC1`, the Potency was inconclusive: 23.1 µM [inhibitor, single point] and inconclusive: 29.1 µM [inhibitor, single point]. For `CSCCC(NC(=O)OC(C)(C)C)C(=O)NC(C(=O)NC(CC(C)C)C(N)=O)C(C)C` (stereo not given), the Potency was “inactive”. With `COc1cccc2cc(C(=O)CS(=O)(=O)c3ccc(C)cc3)c(=O)oc12` the Potency was “inactive”. With `Cc1ccccc1CSc1nc2c(sc3ccccc32)c(=O)n1CCCC(=O)NCCCOC(C)C` the Potency was inconclusive: 20.6 µM [inhibitor, single point]. For `COC(=O)c1cc(NC(=O)CC2C(=O)OCCN2Cc2ccccc2)cc(C(=O)OC)c1` (stereo not given), the Potency was “inactive”. In the case of `COc1ccccc1OCC(=O)NC1CCCCCCC1`, the Potency was inconclusive: 20.6 µM [inhibitor, single point]. For `O=C(COc1ccc(Br)cc1Br)NC1CCCC1`, the Potency was active: 4.11 µM. With `CCOc1ccc(-c2nnc(-c3ccccc3)o2)cc1` the Potency was “inactive”. For `CCOC(=O)N1CCN(C(=O)c2oc(=O)c3ccccc3c2-c2ccc(C)cc2)CC1`, the Potency was inconclusive: 29.1 µM [inhibitor, single point]. For `O=C(CSc1nnc(C2CC2)n1C1CC1)c1ccc(F)cc1`, the Potency was “inactive”. With `O=C(NCc1ccccc1Cl)C1CCCN1S(=O)(=O)c1ccc(F)cc1` (stereo not given) the Potency was “inactive”. In the case of `Cc1c2cc(O)c(=O)cc-2oc2cc(O)c(O)cc12`, the Potency was inconclusive: 14.6 µM [inhibitor, partial curve]. With `CCN(CC)S(=O)(=O)c1ccc(OCCNS(C)(=O)=O)cc1` the Potency was active: 6.51 µM. In the case of `COCCNC(=S)N(CCc1c(C)[nH]c2ccc(C)cc12)Cc1cc(OC)c(OC)c(OC)c1`, the Potency was active: 18.4 µM. In the case of `CN1CCN(S(=O)(=O)c2ccc(Sc3nnnn3-c3ccccc3)c([N+](=O)[O-])c2)CC1`, the Potency was active: 2.91 µM. In the case of `NC(=O)N1c2ccccc2CC(=O)c2ccccc21`, the Potency was “inactive and inconclusive: 29.1 µM [inhibitor, single point]”. For `C=C1CCN(C(C(=O)OC)C(C)C)S(=O)(=O)c2ccc(F)cc21` (stereo not given), the Potency was inconclusive: 1.46 µM [inhibitor, full curve, poor fit]. For `Cc1cccc(OCC(=O)N2CCC(c3nc4ccccc4o3)CC2)c1C`, the Potency was inconclusive: 16.4 µM [inhibitor, single point]. In the case of `O=C1CCCCN1CCC(=O)N1CCCC(Nc2ccc(F)c(F)c2)C1` (stereo not given), the Potency was “inactive”. In the case of `Cc1ccc(-c2csc(C(C)(O)c3ccc(F)c(F)c3)n2)cc1C` (stereo not given), the Potency was inconclusive: 29.1 µM [inhibitor, single point]. In the case of `Cc1c(C(=O)NCC2CCCO2)sc2nc(-c3ccccc3)cn12` (stereo not given), the Potency was inconclusive: 29.1 µM [inhibitor, single point]. For `O=S1(=O)C[C@@H](N2CCN(c3ccccn3)CC2)[C@H](COCc2ccccc2)N1`, the Potency was “inactive”. With `COc1ccc(OC)c(/C=C/C(=O)OCC(=O)N2CCN(S(=O)(=O)c3ccc(C)cc3C)CC2)c1` the Potency was inconclusive: 16.4 µM [inhibitor, single point]. In the case of `O=C(CCCc1ccccn1)c1ccc(-c2ccccc2)cc1`, the Potency was inconclusive: 29.1 µM [inhibitor, single point]. For `COc1cc(C(=O)NCCN2C(=O)S/C(=C\c3cccs3)C2=O)cc(OC)c1OC`, the Potency was inconclusive: 29.1 µM [inhibitor, single point]. For `Cc1ccc(S(=O)(=O)NC(C(=O)N2CCN(S(=O)(=O)c3cccc(F)c3)CC2)C(C)C)cc1` (stereo not given), the Potency was “inactive”. In the case of `O=C(c1cc(S(=O)(=O)N2CCOCC2)ccc1Cl)N1CCc2ccccc2C1`, the Potency was “inactive”. In the case of `NC(Cc1ccccc1)c1csc(Nc2ccc(C(=O)NCCO)cc2)n1` (stereo not given), the Potency was inconclusive: 8.2 µM [inhibitor, partial curve, poor fit].
